This passage reports TGI and GI50 results from PubChem BioAssay (NCI).

Where “and” joins values, the source holds several entries; their conditions need not be identical. Identical values can stand only once.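 1) Cells in 96-well plates. 2) Compound, 48 h, 5 concentrations. 3) Linear interpolation between surrounding doses. 4) Unreached endpoint = highest concentration. Abbreviation: GI50, concentration required for 50% inhibition of growth. At the TGI there is no net growth.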

For this assay, the system named is NCI-H322M lung. The experiment in a line: growth of human tumour cells (NCI), 48 h.
In turn, `Nc1cc(S(N)(=O)=O)ccc1SSc1ccc(S(N)(=O)=O)cc1N` displayed a TGI greater than 100 µM. For `CCCCCN(CCCCC)CC(C)(C)C(O)c1ccc(OC)c2ccccc12` (stereo not given), the TGI amounted to 26.3 µM. Same read-out and setting: as for `CCOC(=O)C(=O)CC(=O)C1=C(c2ccccc2OC)CC(c2cccs2)=CC1=O`, the figure is greater than 100 µM; as for `CCCN(CCC)C1CCc2c(ccc3cc[nH]c23)C1` (stereo not given), greater than 100 µM; as for `O=C(CNc1ccc2c(=S)c3ccccc3[nH]c2c1)Nc1ccccc1-c1ccccc1NC(=O)CNc1ccc2c(=S)c3ccccc3[nH]c2c1`, 51.1 µM. With `CCN(CC)CCOc1ccc(C(O)(Cc2ccc(OC)cc2)c2ccccc2)cc1` (stereo not given), the TGI was greater than 100 µM.

Turning to `C=C(CNC(=O)c1ccccc1)c1ccc(C(=O)Nc2ccccc2N)cc1`, the GI50 was 4.32 µM and the TGI is greater than 100 µM. Molecule `CCCc1nnc2sc(COc3cc(Cl)c(OCc4nn5c(CCC)nnc5s4)cc3Cl)nn12` came in with a TGI greater than 100 µM. Molecule `Cc1cc(O)cc(O)c1C(=O)O[C@]1(C)C(=O)C=C2C=C(/C=C/C(=O)O)OC=C2C1=O` had a TGI greater than 100 µM. The same measure, in the same setting: to `CC(=O)NC1(C(=O)N[C@@H](Cc2ccccc2)C(=O)NC2CCCCC2)Cc2ccc3ccccc3c2-c2c(ccc3ccccc23)C1` belongs greater than 100 µM. For `CC1[C@@H]2CC=C3[C@H]4CCC5Cc6nc7c(nc6C[C@@]5(C)C4(O)CC(=O)[C@]32CO[C@]12OC(C)(C)CC2O)CC1CC[C@@H]2C3=C[C@H]4O[C@@]5(O[C@@](C)(CO)C[C@@H]5O)C(C)[C@@]4(O)[C@]3(C)[C@@H](O)CC2[C@]1(C)C7` (stereo not given in full), the GI50 was 0.0283 µM and the TGI amounted to 0.652 µM.

For the molecule `CN(C)CCSCCO`, the TGI is greater than 100 µM.

`COc1ccc(C2SCC(=O)N2NC(=O)C(C)Oc2ccccc2C)cc1` (stereo not given) displayed a TGI greater than 100 µM.

For `OCC(O)C(O)C(O)c1nn(-c2ccccc2)c2nc3cc(Cl)c(Cl)cc3nc12` (stereo not given), the TGI was greater than 100 µM. `Cc1ccc(C=NC23CC4CC(CC(C4)C2)C3)cc1`: the TGI was greater than 100 µM. In turn, `COc1cc(OC2OC(COC(=O)c3cc(O)c(O)c(O)c3)C(O)C(O)C2O)ccc1O` (stereo not given) showed a TGI greater than 100 µM.

Molecule `O=C(O)CCc1ccc2c(c1)CC1(Cc3ccccc3C1)C2` came in with a TGI greater than 100 µM. As to `Fc1ccc2c(c1)C1=C(CO2)C(c2ccc(Cl)cc2)NC(=S)N1` (stereo not given), the GI50 was 7.56 µM and the TGI turned out to be 38.9 µM. In the same order, the values of `CSc1ccc(SC2c3ccc(C)cc3Oc3nc(N)c(C#N)c(N)c32)cc1` (stereo not given) are 1.66 µM and 3.03 µM. `CC12CCC(C(=Nc3cc(C(F)(F)F)cc(C(F)(F)F)c3)C1=O)C2(C)C` (stereo not given) gave a TGI greater than 100 µM. In the case of `COc1cc2c3c(n(CCCBr)c(=O)c2cc1OC)-c1ccc(F)cc1C3=O`, the GI50 was 60.8 µM and the TGI was greater than 100 µM. `Cc1cc(N(CCC#N)CCC#N)ccc1/C=C1\SC(=S)NC1=O` yielded a TGI greater than 100 µM. In the case of `CCC1(NC(=O)c2cc(F)c(F)c(F)c2F)C(=O)NC(=O)N(C(C)C)C1=O` (stereo not given), the GI50 was 40.6 µM and the TGI was greater than 100 µM. The molecule `CCOc1ccc(/C=C2\NC(=S)N(/C=C3\C(=O)Oc4ccccc4C3=O)C2=O)cc1` showed a TGI of 65.9 µM. `COC(=O)NC(Cc1ccccc1)NC(C)=O` (stereo not given) displayed a TGI greater than 100 µM. Same read-out and setting: as for `Nc1nc(=O)n(C2OC(CO)C(O)C2O)c2ncc(-c3ccc(-c4ccccc4)cc3)nc12` (stereo not given), the figure is greater than 100 µM.

The molecule `COc1ccc(N=C2C(=Nc3ccc(OC)cc3)N(c3ccc(N(C)C)cc3)C(=S)N2c2ccc(OC)cc2)cc1` displayed a TGI greater than 100 µM.

Take `O=C1c2ccccc2-c2c1c1ccc([N+](=O)[O-])cc1c(=O)n2CCCNCCO`: the GI50 is 0.943 µM and the TGI came to 3.61 µM. `CS(=O)(=O)N(CCC#N)c1ccc(C=O)cc1` displayed a TGI greater than 100 µM.

As for `Nc1ccc2ccc(-c3ccc[nH]3)nc2n1`, the TGI was greater than 100 µM. Molecule `CN[C@@H](C)[C@@H](O)c1ccccc1` had a TGI greater than 100 µM.

The molecule `CC1CCCc2c1c1ccc3c(O)cccc3c1oc2=O` (stereo not given) registered a TGI greater than 100 µM. Regarding `COc1cc2c(cc1OC)[C@@](C)(C(O)C(O)C(C)(C)O)NCC2` (stereo not given in full), the TGI is greater than 100 µM. The same measure, in the same setting: as for `CN(C)CCNC(=O)c1ccc(Cl)c2cc3ccccc3nc12`, the figure is 7.07 µM.

Turning to `Cc1ccc(Nc2cc(C)nc(NCCCNc3ccnc4cc(Cl)ccc34)n2)cc1`, the GI50 was 1.55 µM and the TGI was found to be 3.75 µM.

As for `NC(=Nc1ccccc1)c1ccccc1N`, the TGI is greater than 100 µM. With `Clc1ccc(CNc2nccc(-c3cnn4ncccc34)n2)cc1`, the GI50 was 9.29 µM and the TGI was greater than 22.4 µM.

As to `COC(=O)[C@H](C)NC(=O)[C@@H](OC)[C@@H]1Cc2cc3cc(OC4CC(OC5CC(O)C(O)C(C)O5)C(O)C(C)O4)c(C)c(O)c3c(O)c2C(=O)[C@H]1OC1CC(OC2CC(OC3CC(C)(O)C(O)C(C)O3)C(O)C(C)O2)C(O)C(C)O1` (stereo not given in full), the GI50 was 0.117 µM and the TGI is greater than 50 µM. `COc1cccc(C2SC(C)C(=O)N2CCc2cccs2)c1` (stereo not given): the GI50 is 2.75 µM and the TGI amounted to 16.2 µM.

For `COc1cccc(CCC(=O)c2cc3c(N)c(C(=O)Nc4cccc(Cl)c4C)sc3nc2C)c1`, the GI50 is 3.56 µM and the TGI was greater than 100 µM. `Nc1nccc2c1ncn2C1OC(CO)C(O)C1O` (stereo not given): the GI50 is greater than 100 µM and the TGI is greater than 100 µM. The molecule `CCOC(=O)C1=C(Nc2ccc(Br)cc2)OC/C1=N\NC(=O)c1ccccc1O` registered a TGI greater than 100 µM. As to `Cc1cc2oc(C)c(S(=O)(=O)NC(=O)Nc3ccc(Cl)cc3)c(=O)c2c(=O)o1`, the TGI is greater than 100 µM. `O=C(Nc1ccc(Br)cc1)C(=O)C(C(=O)c1ccccc1F)C1OC(=O)c2ccccc21` (stereo not given) gave a TGI of 81.4 µM. In the case of `CS/C(c1ccccc1)=[N+](\[O-])Cc1ccccc1`, the TGI was greater than 100 µM. Take `O=c1oc2c3ccc4cnccc4c3[nH]c2c2ccccc12`: the GI50 was 56.7 µM and the TGI was greater than 100 µM. `CC(=O)/C=C1\CC(=O)Nc2ccccc2N1` gave a TGI greater than 100 µM.

With `CCOC(=O)C(C(=O)OCC)C(=O)c1ccccc1C(=O)c1ccccc1`, the TGI is greater than 100 µM. `COC12CCC(C(C(=O)c3ccccc3)=C1C(=O)c1ccccc1)C(O)C2` (stereo not given) gave a TGI greater than 100 µM. Still for that read-out and setting: to `O=C(O)CNC(=O)c1ccc2cc(C(=O)N3CC(CCl)c4ccc([N+](=O)[O-])cc43)[nH]c2c1` (stereo not given) belongs greater than 100 µM. Same read-out and setting: to `COC1(c2cccs2)c2ccccc2C(OC)(c2cccs2)c2ccccc21` (stereo not given) belongs greater than 100 µM; to `CC(=O)Oc1cc(OC(C)=O)c2c(C)cc(=O)oc2c1`, greater than 100 µM. Take `Cc1cc(C)c(S(=O)(=O)N(CCc2cccc(Br)c2)Cc2ccc(-c3cccc(S(C)(=O)=O)c3)cc2)c(C)c1`: the GI50 was greater than 100 µM and the TGI is greater than 100 µM.

`Cc1ccc2c(C(=O)c3c(C)n(CCN4CCOCC4)c4ccccc34)cccc2c1` registered a TGI of 99.4 µM. Consider `CC1(C)CC([P+](c2ccccc2)(c2ccccc2)c2ccccc2)=NN1`, for which the GI50 was 17.8 µM and the TGI was greater than 100 µM. With `Cc1nc2c(N3CCCC3)nc(N3CCNCC3)nc2nc1NCc1ccccc1`, the GI50 is 6.24 µM; the TGI was 14.7 µM and 17.7 µM. For `Cn1ccnc1CCc1ccc(Cl)c(Cl)c1`, the TGI was greater than 100 µM.

`CCOC(=O)c1ccc(N2C(=O)Cc3ccccc3C2=O)cc1` returned a TGI greater than 100 µM. Turning to `CCOC(=O)c1[nH]c2cccc3c2c1CC[C@H](NC(=O)C(F)(F)F)C3=O`, the TGI was greater than 100 µM. Regarding `Cc1ccc2nc(-c3ccc(N)c4ccccc34)[nH]c2c1`, the GI50 is 0.405 µM and the TGI worked out at 25.6 µM. For the molecule `CN(C)c1ccc(/C=C/C(=O)O)cc1`, the TGI was greater than 100 µM. Take `C=C1C(OC/C=C/COC2O[C@@H]3O[C@@]4(C)CC[C@H]5[C@H](C)CC[C@@H](C2=C)[C@@]35OO4)O[C@@H]2O[C@@]3(C)CC[C@H]4[C@H](C)CC[C@@H]1[C@@]24OO3` (stereo not given in full): the GI50 was 22.3 µM and the TGI was greater than 100 µM.

`COC1=C2C=[N+](C)C3C(=C2C=CC1OC)Cc1cc2c(cc13)OCO2` (stereo not given) yielded a TGI of 30.5 µM. Still for that read-out and setting: to `O=C(NC1C2CC3CC(C2)CC1C3)/C(Cl)=C1/Sc2ccccc2NC1=O` (stereo not given) belongs greater than 100 µM. As for `COc1cc(/C=C\c2ccc(Br)cc2)cc(OC)c1OC`, the TGI is greater than 100 µM.

Consider `COc1cc(F)c(/C=C/c2cc(/C=C/c3cc(OC)c(OC)cc3F)n(-c3cc(F)cc(F)c3)n2)cc1OC`, for which the GI50 was 2.67 µM and the TGI was found to be 8 µM.

Molecule `O=C(N/C(=C\c1ccc(/C=C(\NC(=O)c2ccccc2)c2nc3ccccc3s2)cc1)c1nc2ccccc2s1)c1ccccc1` displayed a TGI of 25.4 µM. Regarding `COC(=O)[C@]12CC[C@@H](C)[C@H](C)[C@@H]1C1=CC[C@@H]3[C@@]4(C)C(C=O)=C[C@@](C)(COS(C)(=O)=O)C4[C@H](O)C[C@@]3(C)[C@]1(C)CC2` (stereo not given in full), the GI50 was 3.13 µM and the TGI came out at 13.9 µM. In the case of `CN(CC(=O)O)Cc1oc(CO)cc(=O)c1O`, the TGI was greater than 100 µM.
